# The other results are listed elsewhere or left out.
# T1: UNK ZnF1-3 (human, UniProt Q9C0B0 31-174)
# T1 sequence: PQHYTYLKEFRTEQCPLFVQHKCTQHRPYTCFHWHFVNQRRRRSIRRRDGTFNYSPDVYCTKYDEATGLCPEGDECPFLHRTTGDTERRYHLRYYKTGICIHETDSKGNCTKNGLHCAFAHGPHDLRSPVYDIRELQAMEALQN
# B1: 36909483_36909603_678_3pUTR_ENSG00000133104_ENST00000494062|human|control|control (ssRNA)
# RNA: GGGAGUUCUACAGUCCGACGAUCGUAAAGACAGAGAAGCAGGUGCAGCAACUGCCCCUGCACUUGGAGUUGAGGUGUUUCCAUUUACUUCAGCAUGCUGAGGAGCUGAACUAAAAGACUGAGGCUCUGGUAAUUUUUCACACACAACAGAGGAUUGAGCAUCA
# B2: 17902918_17905106_1138_CDS_ENSMUSG00000003527_ENSMUST00000003621|mouse|control|control (ssRNA)
# RNA: GGGAGUUCUACAGUCCGACGAUCGUUCUCUGUAACUCUCCGCAACGCUUCCUGCUUCUUCGCCCGGUUUUUGGCAGCCGCUUCAUUGGCCAUCUUCAGGCCCAGACGCUCCCUGCGUCCUGGCUCCAAGAUCUUGAAUGUGGGCAACAGAGGAUUGAGCAUCA
# B3: chrX:140365796:140365797:-_ENSMUSG00000031285_ENSMUST00000033642|mus_mus|mus_mus_mus_hu_False|38_78 (ssRNA)
# RNA: GGGAGUUCUACAGUCCGACGAUCCUUCUCAUUACUCAGUGCCUGCAAGGUUCUGGUUCUGUAGAAGCUACAGUGGGCGCUGUGAGUGGGGCUAGGCAGUCCAUUCAUCCGGGAGCCUCGCAUGUUCCUGGAUGUCUUAUCUCUCAACAGAGGAUUGAGCAUCA
# B4: chr1:150203005:150203006:-_ENSG00000143401_ENST00000314136|hu_mus|motif|central (ssRNA)
# RNA: GGGAGUUCUACAGUCCGACGAUCAAGAUUUGGACAUUUCUCUGCCAGGACUUCCAAGCCUCCAGAAAUUAUAUUGUCACGGAGUUCCAACUUCCGGAGUUUAUUCAAGCUGGGAAGCCGGGCCAAGGAACUCAACUCCACGUUCAACAGAGGAUUGAGCAUCA
# B5: 150808967_150812034_629_3pUTR_ENSG00000143437_ENST00000358595|human|control|control (ssRNA)
# RNA: GGGAGUUCUACAGUCCGACGAUCUCCUGAUCAGUGAGGAAAGACGGCUUAUAGGAGCCAUCAGUGGAUGUGUUGCCAGUUCCCCGCAAGGACUUCAUGUGAGAAACUGCCAUGCGUAAGAUGGUUAGCUUGUCUGGUUUUCGACAACAGAGGAUUGAGCAUCA
# B6: chr5:33459820:33459821:+_ENSG00000113407_ENST00000502553|hu_mus|FALSE|FALSE (ssRNA)
# RNA: GGGAGUUCUACAGUCCGACGAUCCCAGAGCCGGCUAUUGAAGAUGUUGGGAGUGACGACCUCCUGGAACCCUCUUUUCCUAUAUUCACUCCUGAUAAAUUCCAUUAGUGUAUUAUAAAUGUAGGCUCCUUUGGGCAGGAAAAACAACAGAGGAUUGAGCAUCA
# B7: chr7:65705844:65705845:+_ENSG00000169902_ENST00000304842|hu_mus|hu_hu_hu_mus_False|1_68 (ssRNA)
# RNA: GGGAGUUCUACAGUCCGACGAUCAAACGGAUCUUUGUUACAUAAAUAAGGUGCCGGCUCCCCAUGUUUAACGAUAACCUCCAGAAGGAAGGCUUGCAUGGCAGAAUCUAGCACUUCAUCUGUGACACCCGCCUCAUCCAGGCGCAACAGAGGAUUGAGCAUCA
# B8: chr1:178664722:178664723:-_ENSMUSG00000057335_ENSMUST00000057037|mus_hu|FALSE|FALSE (ssRNA)
# RNA: GGGAGUUCUACAGUCCGACGAUCAGGCCUUUGUCGUCGUCUUGCAGGGUCCUUAUAAAUGUGUAAGACAGACAGCAUUUACUAUUGAGUCCUACAGGGAAACACACAGAAGCAAUUCAUUGCUUGGGAGUGAAACUAUCAACUCAACAGAGGAUUGAGCAUCA
# B9: 17919545_17922950_436_3pUTR_ENSG00000163029_ENST00000351948|human|control|control (ssRNA)
# RNA: GGGAGUUCUACAGUCCGACGAUCUUCCACCAAGACCGACUAUGAGAGCUGUGAGUACUGCACUCUUCCCACUUCCAUUGUUGCCAACAACAAAGUUGACAUUAGAACCAAACUUAAAAGGUCCAAGCAUUGAAUGACACAUGACAACAGAGGAUUGAGCAUCA
# B10: chr22:19452774:19452775:-_ENSG00000070010_ENST00000399523|hu_hu|hu_hu_hu_mus_False|28_38 (ssRNA)
# RNA: GGGAGUUCUACAGUCCGACGAUCCUUCUCAUUGUAGUUGAUAGCAAUCACAUCUCCAGUCGUCAGACAGGCGAAGUUUCUCAAUGCAUUUUCUAAUACGGCUUUGGGGUUGGUGAUAUCCAGGAAGUCUGGGCUCUGAGGCUGCAACAGAGGAUUGAGCAUCA
# B11: chr11:122930872:122930873:-_ENSG00000109971_ENST00000227378|hu_hu|FALSE|FALSE (ssRNA)
# RNA: GGGAGUUCUACAGUCCGACGAUCAACCUUUUUGUCUAAGCCGUAAGCAAUAGCAGCAGCAGUUGGCUCAUUAAUAAUUCUAAGUACAUUGAGACCAGCAAUAGUUCCAGCAUCUUUGGUAGCCUGACGCUGAGAGUCAUUAAACAACAGAGGAUUGAGCAUCA
# B12: chr12:27888400:27888401:+_ENSG00000061794_ENST00000081029|hu_hu|motif|central (ssRNA)
# RNA: GGGAGUUCUACAGUCCGACGAUCGGUCUUGCAGUAUCGCUCUCCUACAAGUUUAAUUAAUUUCUUCUUUGCGUGAUCAUCGGAAUUCAAACUGGAAAGCUUUACUCUUAAGACUACUACUCGUGCUCUGGGGUUCCGAACAGACAACAGAGGAUUGAGCAUCA
# B13: chr9:96305504:96305505:+_ENSG00000048828_ENST00000277165|hu_mus|motif|central (ssRNA)
# RNA: GGGAGUUCUACAGUCCGACGAUCAGCUGCCCACUCCUUAAUGAUCAGUGGCGAGAAUUCUGGUGGAAGUCUGUUCUUUCGGAAAGCAAGUCUCUCAGUUUUCUUUCUGCUUUCUGCCAAACUAAACAGGACUCCGUAAACAUACAACAGAGGAUUGAGCAUCA
# B14: chr4:40210074:40210075:-_ENSMUSG00000036822_ENSMUST00000042575|mus_mus|FALSE|FALSE (ssRNA)
# RNA: GGGAGUUCUACAGUCCGACGAUCUAUAGGACACUUAGAAUCAGGAGACGCAUCAGCUGGUACUGUCUGCUGCAAUUUGCUAGUGCCAGCUUUAGGUGAAAAGUUGUCCAUUUUAAAUUCCUUAGCAGCUGAGGCCAUUAUCUCCAACAGAGGAUUGAGCAUCA
# Target: T1, UNK ZnF1-3
# Test: nsRBNS (natural sequence RNA bind-n-seq); RBNS binding buffer (assumed for nsRBNS): 25 mM Tris pH 7.5, 150 mM KCl, 3 mM MgCl2, 0.01% Triton X-100, 500 ug/ml BSA, 20 U/ml SUPERase-In, 4 C; UNK is unkempt and MSI1 is Musashi-1; names of the RNAs are library labels; protein concentration not given here; high values mean tight binding
row,Binder,binding signal [enrichment R]
1,B1,0.702
2,B2,0.552
3,B3,0.401
4,B4,0.87
5,B5,0.734
6,B6,1.02
7,B7,0.372
8,B8,0.9
9,B9,0.977
10,B10,0.861
11,B11,1.62
12,B12,0.753
13,B13,1.11
14,B14,0.734
